# Assay results taken from the BET-seq Pho4 binding data (Le et al. 2018).
# The list shows a part of the results. Values were computed here from the reads of four pooled replicates and scatter widely.
# Target: T1, Pho4 (S. cerevisiae) (UniProt P07270)
# T1 sequence: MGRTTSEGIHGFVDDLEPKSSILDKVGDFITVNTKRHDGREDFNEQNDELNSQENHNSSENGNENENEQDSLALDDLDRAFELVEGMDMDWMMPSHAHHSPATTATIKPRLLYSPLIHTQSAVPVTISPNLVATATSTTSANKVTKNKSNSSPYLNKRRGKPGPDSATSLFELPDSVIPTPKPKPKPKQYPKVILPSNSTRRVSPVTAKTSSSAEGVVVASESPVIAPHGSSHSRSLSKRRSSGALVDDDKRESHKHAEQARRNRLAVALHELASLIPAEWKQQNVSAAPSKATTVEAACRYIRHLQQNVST
# Test: relative binding free energy (BET-seq); higher = weaker binding
# Conditions: reference: library average
row,Sequence,relative binding free energy [kcal/mol]
1,AGCGACACGTGAGGTT,0.33
2,TTTATCACGTGTTATC,0.17
3,AATTACACGTGGTGTA,0.01
4,TGTAGCACGTGAATTG,0.1
5,ACGTGCACGTGAGGTT,0.13
6,GGCGCCACGTGAGGAG,0.12
7,TATCGCACGTGTCGTG,-0.03
8,GAGATCACGTGAGTAG,0.47
9,TGGCCCACGTGGGGCG,-0.11
10,TTGGTCACGTGCTAAT,0.04
11,GGTAGCACGTGGTAGA,-0.05
12,CCGTGCACGTGGGTGT,-0.17
13,CGGTTCACGTGTGCAG,0.12
14,TATTACACGTGTGAAA,0.24
15,GGTCGCACGTGTGTGC,0.01
16,GTGTACACGTGGAATG,0.19
17,GGGTACACGTGAATAA,0.34
18,TGTAACACGTGTGTAT,-0.03
19,ACAAGCACGTGGATGG,0
20,TGGGGCACGTGATCGC,-0.07
21,GTGCACACGTGCGGTT,0.07
22,AGCGGCACGTGTAGGC,0.09
23,GTAGGCACGTGGCAGG,-0.21

row,Sequence,relative binding free energy [kcal/mol]
1,TACTGCACGTGGTTGT,0.05
2,GTGTGCACGTGATTCG,-0.03
3,CGTTCCACGTGTGAGG,0.21
4,AAGTACACGTGCGTGT,0.06
5,TATGACACGTGAAGAG,0.38
6,GGAGTCACGTGTCCGG,0.09
7,AGGATCACGTGTTTAA,0.26
8,TGAAACACGTGTGTGC,0.07
9,TTGATCACGTGGGGTT,-0.12
10,TTTTTCACGTGGACAT,0.18
11,GTTTACACGTGTATTG,0.14
12,GTTCACACGTGGGGCA,0.02
13,TCTAGCACGTGTGGGG,0.02
14,GATATCACGTGGATTT,0.19
15,TAGATCACGTGTTGTT,0.22
16,AATATCACGTGATTAG,0.25
17,GGGTACACGTGTACGG,0.1
18,CCGTTCACGTGTGGTA,0.3
19,GTTGGCACGTGAGGAC,0.18
20,CCAGGCACGTGAGGGT,-0.02
21,TAGGACACGTGGGTAT,-0.05
22,TGGAACACGTGGAGTT,0.03
23,TGGAACACGTGGTTCG,0.06

row,Sequence,relative binding free energy [kcal/mol]
1,GTTAGCACGTGGTGTA,-0.12
2,GGGTTCACGTGGCTTC,0.26
3,GGGCACACGTGTGCGT,0.1
4,CATATCACGTGTGTGT,0.07
5,GATGGCACGTGATGTA,0.12
6,AGTAGCACGTGTAATA,-0.01
7,AGGTTCACGTGAGGTA,0.38
8,ATGGGCACGTGGACTA,-0.1
9,TGATGCACGTGTGGCT,-0.02
10,GACATCACGTGTTTGT,0.1
11,GCGTGCACGTGGTTGC,-0.06
12,CCCGTCACGTGGGGGT,-0.06
13,TGCTTCACGTGTCGTA,0.37
14,AGGTGCACGTGTTAAG,0.04
15,TCGAACACGTGAGGGG,0.21
16,TGCGGCACGTGATAGT,-0.16
17,ACGGTCACGTGTGTTG,0.08
18,CGGGTCACGTGGGGTC,0.01
19,TGAGGCACGTGTTTGT,-0.21
20,GAGGACACGTGACGGT,0.26
21,GTTCTCACGTGGTTGA,0.22
22,GAGGGCACGTGATGTC,0.1
23,TGATACACGTGAGTAT,0.12

row,Sequence,relative binding free energy [kcal/mol]
1,GGTGTCACGTGGTTAA,0.13
2,TTCCTCACGTGGGATG,0.18
3,TTGTTCACGTGGTCTC,0.16
4,ATTTTCACGTGGTAGT,0.22
5,ATGGTCACGTGGAATG,0.22
6,TGTATCACGTGGTGTC,0.04
7,ATCAGCACGTGTGTAT,-0.03
8,AGGGACACGTGCTGGC,0.04
9,TCGAGCACGTGAAGTT,0.41
10,AGTAGCACGTGCATGG,-0.1
11,CTAGCCACGTGAGGGT,0.23
12,TAGTTCACGTGGTTCG,0.2
13,ATTGACACGTGTTTTC,-0.04
14,TATGGCACGTGAGGAT,0
15,TGCGCCACGTGGTAGT,-0.19
16,TGGGCCACGTGTTATA,-0.06
17,AATTTCACGTGAAGGC,0.34
18,TGTTACACGTGGTATA,-0.06
19,AGTGGCACGTGATGCG,-0.04
20,GTCAGCACGTGGGTTG,-0.19
21,CGGTGCACGTGTTATG,-0.01
22,TTTATCACGTGCTCGG,0.16
23,ATCAGCACGTGGATGT,-0.06

row,Sequence,relative binding free energy [kcal/mol]
1,CGATACACGTGATGTT,0.26
2,GATGTCACGTGAGCGG,0.31
3,GATGGCACGTGAGTGG,0.23
4,TCTTACACGTGATTAT,0.32
5,TTAATCACGTGGGCGG,0.06
6,TAAATCACGTGGATAT,0.21
7,CTCGGCACGTGGTAGG,-0.34
8,TTGGTCACGTGGTTTG,0.13
9,GATGTCACGTGTTGTT,0.15
10,TGATTCACGTGGAACT,0.37
11,GAAGTCACGTGGTTGG,0.16
12,TTATACACGTGTTCGG,-0.02
13,GGTTACACGTGTTTCA,0.1
14,AGTGGCACGTGCTTGT,-0.14
15,GGCGTCACGTGGGTCA,0.13
16,TTGGGCACGTGAGCTA,0.1
17,AATTCCACGTGTTTGT,-0.06
18,TATTTCACGTGGCAAG,0.24
19,GGGGGCACGTGCATAG,-0.14
20,TTGATCACGTGCTAGT,0.03
21,ATGTTCACGTGGATTT,0.15
22,TAGTTCACGTGGTGGG,0.29
23,TAAATCACGTGGTAGG,0.11
